# From the supplement of paper PMC6135742
# Where a name gives a salt, the structure may show the parent alone. ± gives the standard deviation of the averaged measurements. The full ranking holds about 2,600 compounds; the median of “MBP+ mature oligodendrocyte number relative to DMSO vehicle control” is about -0.34, and the highest 2% start at about 13. Some of the results follow.
# Test system: jimpy (Plp1 jimpy) mouse iPSC-derived oligodendrocyte progenitor cells
# Assay: MBP+ mature oligodendrocyte number relative to DMSO vehicle control (SDs above negative control mean); higher = more surviving jimpy oligodendrocytes (rescue)
# Conditions: 10 µM; 3 days
# 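Note: 10 µM single dose with 3-day oligodendrocyte differentiation.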
row,SMILES,MBP+ mature oligodendrocyte number
1,CC[C@@]1(O)C(=O)OCc2c1cc1n(c2=O)Cc2cc3c(CN(C)C)c(O)ccc3nc2-1 [Topotecan hydrochloride hydrate],-3.89
2,CC[C@@]1(O)C(=O)OCc2c1cc1n(c2=O)Cc2cc3c(CN(C)C)c(O)ccc3nc2-1 [Topotecan HCl],< -6.7
3,Nc1nnc(-c2cccc(Cl)c2Cl)c(N)n1 [Lamotrigine],-0.484 ± 0.38
4,Cc1cc(Nc2cc(CN3CCOCC3)c3nc(C)c(Cc4ccc(Cl)cc4F)n3n2)n[nH]1,< -4.81
5,Nc1nc(=O)[nH]cc1F [Flucytosine],1.78
6,CCN1CCN(c2ccc(Nc3cc(N(C)C(=O)Nc4c(Cl)c(OC)cc(OC)c4Cl)ncn3)cc2)CC1,0.451
7,Oc1cc(O)cc(/C=C/c2ccc(O)c(O)c2)c1 [Piceatannol],-4.95 ± 1.5
8,Cc1cccc(C2CN(C)CCc3c2cc(O)c(O)c3Cl)c1 (stereo not drawn),1.5
9,CC(=O)O[C@]1(C(C)=O)CC[C@H]2[C@@H]3C=C(C)C4=CC(=O)CC[C@]4(C)[C@H]3CC[C@@]21C [Megestrol Acetate],15.4
10,C=C1[C@H](CO)[C@@H](O)C[C@@H]1n1cnc2c(=O)[nH]c(N)nc21 [Entecavir Hydrate],-0.415
11,CN(C)C(=O)c1cc2cnc(Nc3ccc(N4CCNCC4)cn3)nc2n1C1CCCC1,11.4
12,CCCC(=O)Nc1cccc(NC(=O)c2ccccc2Br)c1,2.72
13,COc1cc2ncnc(Nc3ccc(O)c(Br)c3)c2cc1OC,-4.02
14,COc1cc(-c2cc(-c3cccc(O)c3)cnc2N)cc(OC)c1OC,-6.01
15,N[C@@H](CC(=O)N1CCn2c(nnc2C(F)(F)F)C1)Cc1cc(F)c(F)cc1F [Sitagliptin phosphate monohydrate],0.184
16,Cn1cc(C2=C(c3cn(CCCSC(=N)N)c4ccccc34)C(=O)NC2=O)c2ccccc21 [Ro 31-8220 Mesylate],-5.25
17,C[C@@H]1O[C@@H](O[C@H]2[C@H](Oc3cc(O)c4c(c3)O[C@H](c3ccc(O)cc3)CC4=O)O[C@H](CO)[C@@H](O)[C@@H]2O)[C@H](O)[C@H](O)[C@H]1O [Naringin],-0.5
18,C/C(O)=C(\C#N)C(=O)Nc1ccc(C(F)(F)F)cc1 [Teriflunomide],0.913
19,COc1nc(C)cnc1NS(=O)(=O)c1cccnc1-c1ccc(-c2nnco2)cc1 [Zibotentan (ZD4054)],2.47
20,Cn1cc(/C=C/C(=O)c2cccc(F)c2)cc1/C=C/C(=O)NO,3.04
21,Nc1nccc2c1ncn2C1C=C(CO)C(O)C1O (stereo not drawn) [3-Deazaneplanocin A (DZNeP)],-6.27
22,C[C@@H]1O[C@@H](OC[C@H]2O[C@@H](Oc3c(-c4ccc(O)c(O)c4)oc4cc(O)cc(O)c4c3=O)[C@H](O)[C@@H](O)[C@@H]2O)[C@H](O)[C@H](O)[C@H]1O [Rutin],-0.724
23,CCCC(=O)Nc1ccc(OCC(O)CNC(C)C)c(C(C)=O)c1 (stereo not drawn) [Acebutolol HCl],-2.04
24,COc1ccnc2[nH]cc(C(=O)C(=O)N3CCN(C(=O)c4ccccc4)C[C@H]3C)c12,0.263
25,CO/N=C(\C(=O)N[C@@H]1C(=O)N2C(C(=O)O)=C(CSC(=O)c3ccco3)CS[C@H]12)c1csc(N)n1 [Ceftiofur HCl],0.787

row,SMILES,MBP+ mature oligodendrocyte number
1,CN1[C@@H]2CC[C@H]1C[C@@H](OC(c1ccccc1)c1ccccc1)C2 [Benztropine mesylate],-0.301 ± 0.8
2,N=C(N)c1ccc(N=NNc2ccc(C(=N)N)cc2)cc1 [Diminazene Aceturate],-2.47
3,C[C@H](CCC(=O)O)[C@H]1CC[C@H]2[C@@H]3C[C@H](O)[C@@H]4C[C@H](O)CC[C@]4(C)[C@H]3CC[C@]12C [Hyodeoxycholic acid (HDCA)],0.227
4,"CC1(C)C(=O)N(CCN2CCC(C(=O)c3ccc(F)cc3)CC2)c2ccccc21 [LY-310,762 hydrochloride]",-3.73
5,CC(C)(C)OC(=O)N[C@H]1CCCCC/C=C\[C@@H]2C[C@@]2(C(=O)NS(=O)(=O)C2CC2)NC(=O)[C@@H]2C[C@@H](OC(=O)N3Cc4cccc(F)c4C3)CN2C1=O [Danoprevir (ITMN-191)],0.109
6,NC(=O)Nc1sc(-c2ccc(F)cc2)cc1C(N)=O,-5.93
7,N=C(N)SCCN [2-(2-Aminoethyl)isothiourea dihydrobromide],-1.14
8,COc1cc2ncnc(Nc3ccc(F)c(Cl)c3)c2cc1NC(=O)/C=C/CN1CCCCC1,-5.93
9,CCCCC1C(=O)N(c2ccccc2)N(c2ccccc2)C1=O [Phenylbutazone],0.489 ± 0.94
10,COCCCOc1cc(C[C@@H](C[C@H](N)[C@@H](O)C[C@H](C(=O)NCC(C)(C)C(N)=O)C(C)C)C(C)C)ccc1OC [Aliskiren Hemifumarate],1.79
11,CCCc1nc2c(C)cc(-c3nc4ccccc4n3C)cc2n1Cc1ccc(-c2ccccc2C(=O)O)cc1 [Telmisartan],0.523
12,"O=C(O)Cc1ccc(O)c(O)c1 [3,4-Dihydroxyphenylacetic acid]",-0.387
13,CC(=O)/N=c1/sc(S(N)(=O)=O)nn1C [Methazolamide],1.13 ± 1.5
14,CC1=CC(=O)c2ccccc2C1=O [Menadione],-4.97
15,Cc1ccc(C(=O)N(CCCN)[C@@H](c2nc3cc(Cl)ccc3c(=O)n2Cc2ccccc2)C(C)C)cc1,< -6.7
16,N=C(N)N1CCc2ccccc2C1 [Debrisoquin sulfate],0.869
17,C[C@@H](Oc1cc(-c2cnn(C3CCNCC3)c2)cnc1N)c1c(Cl)ccc(F)c1Cl,-6.61
18,CCC(CC)(NC(=O)C(C)C)C(=O)N[C@@H](CCCN=C(N)N)C(=O)NC1(C(=O)NC(c2ccc(F)cc2)c2ccc(F)cc2)CCCC1,4.04
19,CCN(CC)CCCN(c1ccccc1)C1Cc2ccccc2C1 [Aprindine hydrochloride],0.717
20,COCCCOc1ccnc(C[S+]([O-])c2nc3ccccc3[nH]2)c1C (stereo not drawn) [Rabeprazole sodium],1.61
21,Cc1cc(Nc2ncc(Cl)c(Nc3ccccc3S(=O)(=O)C(C)C)n2)c(OC(C)C)cc1C1CCNCC1,< -6.35
22,O=C(O)Cc1cc(I)c(Oc2ccc(O)c(I)c2)c(I)c1 [Tiratricol],3.28
23,NS(=O)(=O)C#Cc1ccccc1 [Pifithrin-mu],-2.1
24,Nc1c(S(=O)(=O)O)cc(Nc2ccc(Nc3nc(Cl)nc(Nc4cccc(S(=O)(=O)O)c4)n3)c(S(=O)(=O)O)c2)c2c1C(=O)c1ccccc1C2=O [Reactive Blue 2],0.0387
25,CSc1nc(N)c2ncn([C@@H]3O[C@H](COP(=O)(O)OP(=O)(O)O)[C@H](O)C3O)c2n1 (stereo partly drawn),-1.18

row,SMILES,MBP+ mature oligodendrocyte number
1,Cc1ccc(C(=O)C(C)CN2CCCCC2)cc1 (stereo not drawn) [Tolperisone HCl],5.05
2,CNCC[C@@H](Oc1ccccc1C)c1ccccc1 [Tomoxetine],0.61
3,CNCC[C@@H](Oc1ccccc1C)c1ccccc1 [Atomoxetine HCl],1.53
4,"c1ccc(CN2CCC3(CCCc4ccccc43)CC2)cc1 [L-687,384 hydrochloride]",0.735
5,Cc1c(C(=O)NN2CCCCC2)nn(-c2ccc(Cl)cc2Cl)c1-c1ccc(Cl)cc1 [Rimonabant],1.14
6,COc1cc2c(cc1OC)CC(=O)N(CCCN(C)C[C@H]1Cc3cc(OC)c(OC)cc31)CC2 [Ivabradine HCl],0.883
7,C[C@H]1c2cccc(O)c2C(=O)C2=C(O)[C@]3(O)C(=O)C(C(N)=O)=C(O)[C@@H](N(C)C)[C@@H]3[C@@H](O)[C@@H]21 [Doxycycline HCl],3.76
8,C[C@H]1c2cccc(O)c2C(=O)C2=C(O)[C@]3(O)C(=O)C(C(N)=O)=C(O)[C@@H](N(C)C)[C@@H]3[C@@H](O)[C@@H]21 [Doxycycline Hyclate],9.53
9,C[C@H]1c2cccc(O)c2C(=O)C2=C(O)[C@]3(O)C(=O)C(C(N)=O)=C(O)[C@@H](N(C)C)[C@@H]3[C@@H](O)[C@@H]21 [Doxycycline hydrochloride],4.9
10,Clc1ccc(C(Cn2ccnc2)OCc2ccsc2Cl)c(Cl)c1 (stereo not drawn) [Tioconazole],6.28
11,O=C(O)CNC(=O)C(CS)Cc1ccccc1 (racemic) [DL-Thiorphan],-0.604
12,c1cnc(N2CCN(Cc3ccc4c(c3)OCO4)CC2)nc1 [Piribedil maleate],0.146
13,C[C@](N)(Cc1ccc(O)c(O)c1)C(=O)O [L-alpha-Methyl DOPA],-0.127
14,COc1cc2c(c(OC)c1OC)-c1c(cc3c(c1OC)OCO3)CC(C)C(C)C2 (stereo not drawn) [Schisandrin B (Sch B)],1.06
15,Fc1ccc(CN(C2=NCCN2)c2c(Cl)cccc2Cl)cc1 [IMID-4F hydrochloride],-3.79
16,CCc1c2c(nc3ccc(O)cc13)-c1cc3c(c(=O)n1C2)COC(=O)[C@]3(O)CC,< -6.35
17,CCOC(=O)O[C@]1(C(=O)OCCl)CC[C@H]2[C@@H]3CCC4=CC(=O)C=C[C@]4(C)[C@H]3[C@@H](O)C[C@@]21C [Loteprednol etabonate],-0.377
18,CCc1cc2c(cc1N1CCC(N3CCOCC3)CC1)C(C)(C)c1[nH]c3cc(C#N)ccc3c1C2=O,-2.2
19,O=C(O)C(=O)O.[NH-][C@@H]1CCCC[C@H]1[NH-].[Pt+2] [Oxaliplatin],< -6.7
20,Cc1ccc(NC(=O)c2ccc(CN3CCN(C)CC3)cc2)cc1Nc1nccc(-c2cccnc2)n1 [Imatinib Mesylate (STI571)],-5.56
21,Cc1ccc(NC(=O)c2ccc(CN3CCN(C)CC3)cc2)cc1Nc1nccc(-c2cccnc2)n1 [Imatinib (STI571)],-4.36
22,CC(C)C(=O)Oc1ccc(CO)cc1[C@H](CCN(C(C)C)C(C)C)c1ccccc1 [Fesoterodine Fumarate],-2.46
23,Cc1nn(-c2ccccc2)c(C)c1C=NN1CCN(Cc2ccccc2)CC1,14.2 ± 1.6
